About 660 (0.18%) of roughly 360,000 compounds were called active. The shares of active, inactive and inconclusive entries below differ from those in the screen. Calls come from the whole dose curve; as a rule, active = well fitted inhibition curve with a large enough effect; inconclusive = small, poorly fitted or top-dose-only effect; inactive = no such curve, though single readings can be large or run the other way. No potency is given beside an inconclusive call; the fits are too rough.
Biological target: Rap guanine nucleotide exchange factor 4 (Homo sapiens) (UniProt Q8WZA2)
Assay: qHTS for Antagonist of cAMP-regulated guanine nucleotide exchange factor 2 (EPAC2): primary screen; note: nearly all actives have a fitted effect of over 45% in size
Details: EPAC2 GEF exchange of Rap1B-BODIPY-GDP, fluorescence; activity, negative = inhibition: at 114 µM (top of the series) unless noted
% is set by controls: 0 for no effect and ±100 for the full control effect; potency is the fitted concentration of half-maximal effect; tags give direction and shape of the fitted curve.

Sequence of UniProt Q8WZA2 (Q8WZA2 whole entry, looked up): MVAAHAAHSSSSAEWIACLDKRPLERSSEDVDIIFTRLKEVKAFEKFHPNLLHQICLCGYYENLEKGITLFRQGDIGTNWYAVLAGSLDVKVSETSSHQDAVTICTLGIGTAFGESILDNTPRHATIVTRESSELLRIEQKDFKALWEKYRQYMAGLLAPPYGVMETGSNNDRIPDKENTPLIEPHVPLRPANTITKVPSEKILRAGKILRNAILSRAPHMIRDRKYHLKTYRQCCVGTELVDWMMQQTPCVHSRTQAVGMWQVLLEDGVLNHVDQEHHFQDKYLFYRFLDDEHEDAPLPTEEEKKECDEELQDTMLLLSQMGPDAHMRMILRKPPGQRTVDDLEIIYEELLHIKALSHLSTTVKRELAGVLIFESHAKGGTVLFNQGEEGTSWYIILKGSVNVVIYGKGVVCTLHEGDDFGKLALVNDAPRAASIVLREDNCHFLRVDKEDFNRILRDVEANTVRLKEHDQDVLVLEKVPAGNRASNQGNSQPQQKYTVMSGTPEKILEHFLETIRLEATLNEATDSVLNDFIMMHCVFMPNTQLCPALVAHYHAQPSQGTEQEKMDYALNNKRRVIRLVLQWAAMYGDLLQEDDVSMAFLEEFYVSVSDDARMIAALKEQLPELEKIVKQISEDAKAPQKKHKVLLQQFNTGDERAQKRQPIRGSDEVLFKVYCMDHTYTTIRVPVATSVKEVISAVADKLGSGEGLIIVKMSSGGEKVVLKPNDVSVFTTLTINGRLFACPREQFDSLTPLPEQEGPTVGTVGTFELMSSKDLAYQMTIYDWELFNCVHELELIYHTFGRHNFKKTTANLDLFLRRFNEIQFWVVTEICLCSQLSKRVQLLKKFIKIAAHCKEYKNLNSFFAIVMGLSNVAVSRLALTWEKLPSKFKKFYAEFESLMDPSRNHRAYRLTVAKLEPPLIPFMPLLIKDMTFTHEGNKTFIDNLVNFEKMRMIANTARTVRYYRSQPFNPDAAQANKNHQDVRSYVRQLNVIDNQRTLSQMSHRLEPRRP

Compound | Potency | activity, negative = inhibition
CCN1CCc2c(sc(NC(=O)c3cc4ccccc4cc3OC)c2C(N)=O)C1 | inconclusive [inhibitor, single point] | 
CC(C)(C)OC(=O)N1CCN(C(=O)c2[nH]c(C(F)(F)F)nc2-c2ccccc2)CC1 | inconclusive [inhibitor, single point] | 
COc1ccc2c(c1)CCC/C2=N/OC(=O)c1ccccc1OC | inconclusive [inhibitor, partial curve] | 
CC(=O)Nc1ccc(NC(=O)C2Cc3c(-c4ccc5c(c4)OCO5)ccnc3O2)cc1 (stereo unspecified) | inconclusive [inhibitor, single point] | 
CCCCNc1ccc2c3c(cccc13)C(=O)N(CCCC)C2=O |  | inactive: 183%
COc1ccccc1NC(=S)N(Cc1cccnc1)Cc1ccco1 | inconclusive [inhibitor, full curve, poor fit] | 
O=C(N/N=C/c1cc2c(cc1Br)OCO2)c1c[nH]c2ccccc12 | inconclusive [inhibitor, single point] | 
N#CNC(=Nc1cccc(F)c1)SCc1ccccc1 | inconclusive [inhibitor, single point] | 
CCOC(=O)c1ccc([N+](=O)[O-])c(CS(=O)(=O)c2ccc(Cl)cc2)c1 | inconclusive [inhibitor, partial curve] | 
O=C(Nc1ccc(F)cc1)N1CCN(c2ccc3nnc(-c4ccc(F)cc4)n3n2)CC1 |  | inactive: -10.1%
CC(C)c1ccc2nc(NC(=O)C3CC3)sc2c1 | inconclusive [inhibitor, partial curve] | 
COc1ccc(C2CCc3cc4c(cc3C2=NOC(C)=O)OCO4)cc1OC (stereo unspecified) | inconclusive [inhibitor, full curve] | 
COc1ccc(C2CC(c3ccc(Cl)c(Cl)c3)Nc3nc(N)nn32)cc1 (stereo unspecified) | inconclusive [inhibitor, single point] | 
CN(CCCN1CCOCC1)C(=O)c1cc(COc2ccc(F)cc2F)on1 |  | inactive: -3.04%
N=C1C(c2nc3ccccc3c(=O)[nH]2)=C(O)CN1CCc1ccccc1 |  | inactive: 2.45%
CN(c1ccccc1)S(=O)(=O)c1ccc(C(=O)NCc2ccc(F)cc2)cc1 | inconclusive [inhibitor, single point] | 
COCOCCn1cc(CN2CCS(=O)(=O)N(Cc3ccc(-c4ccc(F)nc4)cc3)C(CC(C)C)C2=O)nn1 (stereo unspecified) | inconclusive [inhibitor, full curve] | 
CCCCc1c(-c2ccccc2OC)ncn1C1CCCC1 | inconclusive [inhibitor, partial curve] | 
Cc1ccc(C)c(-n2nnc3ccccc3c2=O)c1 | inconclusive [inhibitor, single point] | 
COc1ccc(CNC(=O)COC(=O)Cc2ccc(Cl)cc2Cl)cc1 | inconclusive [inhibitor, partial curve, poor fit] | 
CCN(CC)C(=O)C1CCN(CC2CC=CCC2)CC1 (stereo unspecified) |  | inactive: -12.5%
CCOC(=O)/C(=N\Nc1ncnc2ccccc12)c1ccc(C)cc1 | inconclusive [inhibitor, full curve, poor fit] | 

Compound | Potency | activity, negative = inhibition
COc1cc(OC)nc(Oc2ccccc2C(=O)Oc2ccc(Cl)cc2)n1 | inconclusive [inhibitor, full curve] | 
COc1ccc(NC(C)=O)cc1S(=O)(=O)N1CCN(C/C=C/c2ccccc2)CC1 | inconclusive [inhibitor, partial curve] | 
O=C(N/N=C/c1ccc(OC(F)F)cc1OC(F)F)NC1CCCCC1 | inconclusive [inhibitor, partial curve, poor fit] | 
Cc1nc2ccc(Cl)cc2c(-c2ccccc2Cl)c1CC(=O)O | inconclusive [inhibitor, single point] | 
Cn1c(=O)c(-c2cc(Br)ccc2N)nc2ccccc21 |  | inactive: -1.94%
CC1=C(C(=O)N(C(C)C)C(C)C)CC(CC(=O)NC2CCCCC2)C(=O)N1Cc1ccc(C(C)(C)C)cc1 (stereo unspecified) | inconclusive [inhibitor, full curve, poor fit] | 
COc1ccc(OC)c(/C=N/NC(=O)CNC(=O)c2cccc3ccccc23)c1 |  | inactive: -1.36%
COc1ccc(C)cc1NC(=O)COC(=O)c1ccc2ccccc2n1 | inconclusive [inhibitor, single point] | 
COc1ccc(C2C=C(C)Nc3nc(SC)nn32)cc1 (stereo unspecified) |  | inactive: 10.4%
COc1ccccc1C(=O)C1CCCN(C(=O)c2cccnc2SC)C1 (stereo unspecified) | inconclusive [inhibitor, partial curve] | 
CC=Cc1cc(OC)c2c(c1)C(C)C(c1ccc(O)c(OC)c1)O2 (stereo unspecified) | inconclusive [inhibitor, partial curve] | 
COc1ccc(C(=O)Nc2cccc(-c3ccc(N4CCOCC4)nn3)c2)cc1OC |  | inactive: 8%
Cc1ccc(NC(=O)Cc2ccccc2Cl)cc1S(=O)(=O)N(C)C | inconclusive [inhibitor, partial curve, poor fit] | 
O=C(Nc1ccccc1N1CCCCC1)c1cnccn1 | active: 17.8 µM | 
CCOC(=O)N1CCC(N2Cc3cccc(C(=O)Nc4ccc(F)cc4)c3C2=O)CC1 |  | inactive: 4.23%
c1ccc(-c2nn3c(-c4ccccc4)nnc3o2)cc1 |  | inconclusive: -20.7% [inhibitor]
Cn1c(=O)c2c(ncn2CC(=O)N2CCOCC2)n(C)c1=O | inconclusive [inhibitor, single point] | 
Cc1ccc(Cn2cccc2/C=N/NC(=S)Nc2ccc(C)cc2)cc1 | inconclusive [inhibitor, partial curve] | 
CN(CC(=O)Nc1ccccc1C(F)(F)F)Cc1c(O)ccc2ccccc12 | inconclusive [inhibitor, partial curve, poor fit] | 
O=C(O)CN1C(=O)/C(=C\c2cc(Br)ccc2OCc2ccc(F)cc2)SC1=S | inconclusive [inhibitor, partial curve] | 
Cc1ccc(Cl)cc1NS(=O)(=O)c1ccc2oc(=O)ccc2c1 | inconclusive [inhibitor, partial curve] | 
CCn1ccnc1CN(C)Cc1cn(-c2cccc(C)c2)nc1-c1cccc(F)c1 | inconclusive [inhibitor, full curve, poor fit] | 

Compound | Potency | activity, negative = inhibition
CCCCCCCCN1C(=O)[C@H](CC(=O)NCCCOCCCC)C[C@@]2(C(=O)OC)CC(C)(C)CC=C12 | inconclusive [inhibitor, full curve] | 
CCOc1cc(/C=C2\C(=O)ON=C2C)ccc1OCc1ccccc1 |  | inactive: -4.19%
CC(C)NC(=O)COC(=O)c1ccccc1C(=O)c1ccccc1 | inconclusive [inhibitor, partial curve] | 
Cc1ccc(O)c(NC(=O)CSc2ccc(Cl)cc2)c1 |  | inactive: -1.48%
Cc1ccc(NC(=O)CN(C)C(=O)COC(=O)C(C)(C)Oc2ccc(Cl)cc2)cc1 | inconclusive [inhibitor, partial curve] | 
O=[N+]([O-])CC(c1ccccc1)c1c[nH]c2ccccc12 (stereo unspecified) | inconclusive [inhibitor, partial curve] | 
CCc1ccc2c(c1)NC(=O)C2(C)Cc1ccc(Cl)cc1 (stereo unspecified) | inconclusive [inhibitor, partial curve] | 
O=C1NC(=S)S/C1=C\c1ccc(SCc2ccccc2)o1 | inconclusive [inhibitor, single point] | 
O=C(Nc1nncs1)c1ccccc1NS(=O)(=O)c1cccs1 | inconclusive [inhibitor, full curve] | 
COc1ccccc1OCCNC(=O)C1CCN(C(C)=O)CC1 | inconclusive [inhibitor, single point] | 
Cc1occc1-c1nnc(SCC(=O)N(C)CCC#N)n1N | inconclusive [inhibitor, single point] | 
CCOC(=O)/C=C1\CN(C(C)c2ccccc2)S(=O)(=O)c2ccccc21 (stereo unspecified) | inconclusive [inhibitor, partial curve] | 
COc1ccc(CNC(=O)C2(C)Cc3c(-c4cccc(C(N)=O)c4)ccnc3O2)cc1OC (stereo unspecified) | inconclusive [inhibitor, single point] | 
CCN(CC(=O)NCc1cccs1)C(=O)c1ccc(-c2cccc(C(F)(F)F)c2)o1 | inconclusive [inhibitor, single point] | 
Cc1ccc(S(=O)(=O)N2CC3=C(C2)C2CC2(C)C3)cc1 (stereo unspecified) | inconclusive [inhibitor, partial curve] | 
CCC(Cc1c(I)cc(I)c(N)c1I)C(=O)O (stereo unspecified) | inconclusive [inhibitor, single point] | 
CC1(C(=O)Nc2ccc(F)cc2F)CCN1C(=O)CCC1CCCC1 (stereo unspecified) |  | inactive: -18.5%
Cc1ccc(OCc2ccccc2C)c([N+](=O)[O-])n1 | inconclusive [inhibitor, partial curve] | 
CN(Cc1ccccc1)c1c([N+](=O)[O-])c(=O)n(C)c2ccccc12 | inconclusive [inhibitor, full curve] | 
COc1ccc(NC(=O)c2ccc3ccccc3c2OC)cc1 | inconclusive [inhibitor, partial curve] | 
Cc1ccc(C)c(SCC(=O)Nc2cccc(S(=O)(=O)N3CCOCC3)c2)c1 | inconclusive [inhibitor, single point] | 
COc1cc(/C=C(\C#N)c2nc3ccccc3s2)cc([N+](=O)[O-])c1O | inconclusive [inhibitor, partial curve] | 
